From PMC7794610
These are yes or no findings as the source states them, for the method shown. In cells and extracts the contact can be indirect. Some results given as binding are weak or reduced against the parent protein; the word gives no strength. For part of these data: Tags and fused reporters may be left off the sequences shown.

Sequences of proteins named here, by UniProt entry; tags and fusion partners are left off. Residues count along the entry.
UniProt P52164: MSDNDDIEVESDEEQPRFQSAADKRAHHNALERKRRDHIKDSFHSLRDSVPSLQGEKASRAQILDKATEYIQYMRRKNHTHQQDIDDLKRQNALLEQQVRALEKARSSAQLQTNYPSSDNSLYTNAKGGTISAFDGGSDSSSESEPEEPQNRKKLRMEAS
UniProt Q04206: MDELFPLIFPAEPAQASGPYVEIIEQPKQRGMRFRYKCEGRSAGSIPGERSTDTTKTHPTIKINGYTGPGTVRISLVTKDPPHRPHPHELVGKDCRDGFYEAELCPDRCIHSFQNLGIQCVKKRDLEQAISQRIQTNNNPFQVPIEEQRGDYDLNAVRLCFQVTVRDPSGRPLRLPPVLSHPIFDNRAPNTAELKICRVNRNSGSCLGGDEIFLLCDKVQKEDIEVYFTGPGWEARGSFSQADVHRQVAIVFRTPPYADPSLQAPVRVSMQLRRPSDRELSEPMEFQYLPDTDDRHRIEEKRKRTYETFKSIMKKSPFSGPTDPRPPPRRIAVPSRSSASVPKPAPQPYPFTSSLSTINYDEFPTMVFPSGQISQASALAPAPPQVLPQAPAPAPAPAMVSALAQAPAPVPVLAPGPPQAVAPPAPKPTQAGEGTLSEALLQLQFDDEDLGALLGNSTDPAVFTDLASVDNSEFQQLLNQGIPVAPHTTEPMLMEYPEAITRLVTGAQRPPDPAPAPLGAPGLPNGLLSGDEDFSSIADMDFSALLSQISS
UniProt P19838, residues 1-433: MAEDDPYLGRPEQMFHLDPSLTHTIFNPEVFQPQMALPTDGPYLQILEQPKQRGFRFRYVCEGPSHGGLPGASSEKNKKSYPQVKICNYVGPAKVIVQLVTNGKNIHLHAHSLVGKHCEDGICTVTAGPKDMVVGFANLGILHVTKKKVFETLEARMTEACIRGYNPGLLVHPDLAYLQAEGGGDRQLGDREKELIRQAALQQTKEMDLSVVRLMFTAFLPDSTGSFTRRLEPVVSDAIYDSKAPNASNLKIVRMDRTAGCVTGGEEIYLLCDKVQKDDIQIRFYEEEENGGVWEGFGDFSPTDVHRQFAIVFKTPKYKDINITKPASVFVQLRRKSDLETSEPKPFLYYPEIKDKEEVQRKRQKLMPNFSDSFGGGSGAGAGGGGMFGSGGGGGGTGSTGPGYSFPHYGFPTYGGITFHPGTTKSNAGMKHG
UniProt P09416: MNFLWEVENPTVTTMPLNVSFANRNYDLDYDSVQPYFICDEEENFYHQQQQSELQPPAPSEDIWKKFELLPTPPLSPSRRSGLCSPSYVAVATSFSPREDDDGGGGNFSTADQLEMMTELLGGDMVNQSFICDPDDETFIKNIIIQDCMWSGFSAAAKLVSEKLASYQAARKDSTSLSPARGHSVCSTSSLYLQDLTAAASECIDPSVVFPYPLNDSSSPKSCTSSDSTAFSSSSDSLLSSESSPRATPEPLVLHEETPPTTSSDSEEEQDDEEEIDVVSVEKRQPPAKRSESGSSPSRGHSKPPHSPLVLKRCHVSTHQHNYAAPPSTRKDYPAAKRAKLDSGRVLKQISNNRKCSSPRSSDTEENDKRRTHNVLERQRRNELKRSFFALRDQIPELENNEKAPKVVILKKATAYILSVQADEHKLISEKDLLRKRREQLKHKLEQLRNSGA
UniProt P15307: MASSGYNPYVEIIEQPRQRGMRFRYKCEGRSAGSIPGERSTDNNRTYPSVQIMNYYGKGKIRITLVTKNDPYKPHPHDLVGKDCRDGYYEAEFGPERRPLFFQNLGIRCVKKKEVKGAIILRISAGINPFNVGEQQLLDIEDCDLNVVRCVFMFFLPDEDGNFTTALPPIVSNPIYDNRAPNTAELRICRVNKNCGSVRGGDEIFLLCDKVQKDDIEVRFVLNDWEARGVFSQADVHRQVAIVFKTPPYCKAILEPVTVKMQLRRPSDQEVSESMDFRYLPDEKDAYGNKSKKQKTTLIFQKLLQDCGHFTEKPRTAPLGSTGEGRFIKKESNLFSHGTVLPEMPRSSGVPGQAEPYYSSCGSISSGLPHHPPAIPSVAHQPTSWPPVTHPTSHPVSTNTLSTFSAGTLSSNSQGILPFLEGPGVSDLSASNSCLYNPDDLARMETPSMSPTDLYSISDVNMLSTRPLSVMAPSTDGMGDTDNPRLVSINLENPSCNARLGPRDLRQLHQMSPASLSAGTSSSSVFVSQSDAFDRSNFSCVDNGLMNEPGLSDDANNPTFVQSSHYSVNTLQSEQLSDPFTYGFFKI
UniProt P61244: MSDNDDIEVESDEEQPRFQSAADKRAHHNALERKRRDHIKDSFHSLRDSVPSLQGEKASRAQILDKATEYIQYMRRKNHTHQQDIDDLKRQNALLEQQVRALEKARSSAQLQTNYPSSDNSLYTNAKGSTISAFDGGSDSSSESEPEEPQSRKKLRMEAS

Legend:
[1] = molecular target: T1, MNT (human, endogenous) (human (endogenous in LoVo)) (UniProt Q99583); assay: co-IP; endogenous proteins, human LoVo lysate in mild hypotonic buffer (10 mM HEPES pH 7, 10 mM KCl, 0.1% NP-40); IP with anti-MNT (two antibodies), anti-REL, anti-p65, anti-p105/p50, IgG as control; immunoblot
T1 sequence: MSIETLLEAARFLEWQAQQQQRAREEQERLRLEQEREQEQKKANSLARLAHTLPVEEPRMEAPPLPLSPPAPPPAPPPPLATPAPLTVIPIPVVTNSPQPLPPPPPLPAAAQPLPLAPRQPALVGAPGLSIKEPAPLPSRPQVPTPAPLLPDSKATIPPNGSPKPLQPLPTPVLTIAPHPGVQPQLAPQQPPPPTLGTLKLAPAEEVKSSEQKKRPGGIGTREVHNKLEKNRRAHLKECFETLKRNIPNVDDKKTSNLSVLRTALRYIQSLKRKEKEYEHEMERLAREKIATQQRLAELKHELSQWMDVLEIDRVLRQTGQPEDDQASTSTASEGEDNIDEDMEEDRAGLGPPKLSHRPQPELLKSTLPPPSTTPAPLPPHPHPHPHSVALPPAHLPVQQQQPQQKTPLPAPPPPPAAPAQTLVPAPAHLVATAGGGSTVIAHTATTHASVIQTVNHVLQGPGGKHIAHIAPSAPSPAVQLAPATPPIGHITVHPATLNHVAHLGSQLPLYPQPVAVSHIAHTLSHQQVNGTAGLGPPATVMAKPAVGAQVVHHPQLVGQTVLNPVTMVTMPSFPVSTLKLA

[2] = molecular target: MAX (rat, endogenous) (rat (endogenous in C6)) (UniProt P52164); assay: proximity ligation; Duolink in situ PLA in C6 cells 48 h after transfection with WT MNT-HA and REL-flag vectors; antibody pairs anti-MNT/anti-REL, anti-MYC/anti-MAX (positive control)
ΔNt1 MNT-HA (mouse) = molecular target: T2, ΔNt1 MNT-HA (mouse) (UniProt O08789); assay: co-IP; C6 lysates 48 h after transfection with REL-flag (mouse) and MNT-HA deletion constructs (mouse); IP with anti-HA, IgG as control; immunoblot of HA and REL
T2 sequence: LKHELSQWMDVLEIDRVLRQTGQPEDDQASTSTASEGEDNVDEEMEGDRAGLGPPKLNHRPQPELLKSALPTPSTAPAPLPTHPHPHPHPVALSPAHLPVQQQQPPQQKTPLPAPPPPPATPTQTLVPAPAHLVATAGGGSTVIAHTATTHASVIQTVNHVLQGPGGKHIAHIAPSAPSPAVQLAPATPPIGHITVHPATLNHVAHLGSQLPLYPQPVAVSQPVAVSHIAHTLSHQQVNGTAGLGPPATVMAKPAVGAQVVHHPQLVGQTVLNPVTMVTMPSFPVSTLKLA

ΔNt2 MNT-HA (mouse) = molecular target: T3, ΔNt2 MNT-HA (mouse) (UniProt O08789); assay: as above
T3 sequence: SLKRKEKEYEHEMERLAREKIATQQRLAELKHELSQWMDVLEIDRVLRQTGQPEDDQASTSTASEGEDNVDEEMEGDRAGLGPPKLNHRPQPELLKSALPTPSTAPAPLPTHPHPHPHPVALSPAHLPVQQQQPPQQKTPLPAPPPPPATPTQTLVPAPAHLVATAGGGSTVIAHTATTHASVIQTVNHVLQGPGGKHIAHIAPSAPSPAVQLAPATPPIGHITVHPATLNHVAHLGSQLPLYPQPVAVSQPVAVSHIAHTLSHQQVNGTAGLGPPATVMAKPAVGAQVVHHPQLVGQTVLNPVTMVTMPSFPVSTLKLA

mouse WT MNT-HA (mouse) = molecular target: T4, mouse WT MNT-HA (mouse) (UniProt O08789); assay: proximity ligation; Duolink in situ PLA in C6 cells 48 h after transfection with WT MNT-HA and REL-flag vectors; antibody pairs anti-MNT/anti-REL, anti-MYC/anti-MAX (positive control)
T4 sequence: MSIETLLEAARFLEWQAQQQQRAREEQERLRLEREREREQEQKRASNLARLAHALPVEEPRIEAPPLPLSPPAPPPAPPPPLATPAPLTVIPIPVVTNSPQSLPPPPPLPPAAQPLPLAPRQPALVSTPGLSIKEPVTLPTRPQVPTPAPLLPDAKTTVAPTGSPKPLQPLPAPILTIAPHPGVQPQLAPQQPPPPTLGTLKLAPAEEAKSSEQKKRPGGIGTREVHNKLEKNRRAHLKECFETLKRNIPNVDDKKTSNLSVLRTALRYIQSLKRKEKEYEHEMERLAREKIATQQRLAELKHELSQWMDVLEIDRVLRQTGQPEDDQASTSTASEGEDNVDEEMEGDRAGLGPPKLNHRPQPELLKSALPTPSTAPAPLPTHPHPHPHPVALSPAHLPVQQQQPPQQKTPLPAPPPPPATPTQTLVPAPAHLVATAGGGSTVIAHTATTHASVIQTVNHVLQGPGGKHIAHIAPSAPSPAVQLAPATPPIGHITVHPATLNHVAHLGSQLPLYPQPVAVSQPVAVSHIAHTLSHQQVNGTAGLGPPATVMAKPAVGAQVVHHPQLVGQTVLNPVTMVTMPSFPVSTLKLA

[3] = molecular target: T5, MNT (mouse, endogenous) (mouse (endogenous in Neuro-2a)) (UniProt O08789); assay: co-IP; endogenous proteins, mouse Neuro-2a lysate; IP with anti-MNT; immunoblot
T5 sequence: T4 sequence

[4] = molecular target: p65 (human, endogenous) (human (endogenous in LoVo)) (UniProt Q04206); assay: proximity ligation; Duolink in situ PLA in untransfected LoVo cells; antibody pairs anti-MNT/anti-REL, anti-p65/anti-REL (positive control)
[5] = molecular target: p50 (human, endogenous) (human (endogenous in LoVo)) (UniProt P19838); assay: co-IP; endogenous proteins, human LoVo lysate in mild hypotonic buffer (10 mM HEPES pH 7, 10 mM KCl, 0.1% NP-40); IP with anti-MNT (two antibodies), anti-REL, anti-p65, anti-p105/p50, IgG as control; immunoblot
[6] = molecular target: p65 (human, endogenous) (human (endogenous in LoVo)) (UniProt Q04206); assay: as above
[7] = molecular target: T6, c-REL (human, endogenous) (human (endogenous in LoVo)), Q04864; assay: co-IP; LoVo lysates 72 h after infection with shRNAs against MNT (shMNT) or scrambled shRNA (shSCR); IP with anti-REL, IgG as control; immunoblot of REL and IκBα; conditions: remark: other sources report otherwise
T6 chain: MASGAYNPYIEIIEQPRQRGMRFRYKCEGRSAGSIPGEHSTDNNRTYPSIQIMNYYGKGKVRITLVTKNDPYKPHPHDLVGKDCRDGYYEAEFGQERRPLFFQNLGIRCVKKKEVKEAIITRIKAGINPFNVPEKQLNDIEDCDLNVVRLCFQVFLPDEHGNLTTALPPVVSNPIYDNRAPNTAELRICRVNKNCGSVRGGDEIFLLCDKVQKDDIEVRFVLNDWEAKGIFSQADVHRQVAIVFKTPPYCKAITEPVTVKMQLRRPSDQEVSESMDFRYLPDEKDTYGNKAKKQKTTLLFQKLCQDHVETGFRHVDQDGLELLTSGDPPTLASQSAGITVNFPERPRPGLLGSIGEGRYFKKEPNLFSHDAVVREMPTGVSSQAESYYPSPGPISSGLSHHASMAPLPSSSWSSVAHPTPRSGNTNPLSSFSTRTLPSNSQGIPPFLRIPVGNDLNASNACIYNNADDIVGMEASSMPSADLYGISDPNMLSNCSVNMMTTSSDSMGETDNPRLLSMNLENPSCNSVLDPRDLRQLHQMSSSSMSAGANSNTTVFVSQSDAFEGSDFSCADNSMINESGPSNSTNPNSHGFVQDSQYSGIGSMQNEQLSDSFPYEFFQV

“p50 (human, endogenous) (from UniProt P19838 1-433)” was tested, and the binding [1] was “no binding”.

“MYC (rat, endogenous) (from UniProt P09416 1-453)” was tested, and the binding [2] was “binds”.

“mouse c-Rel cFlag (from UniProt P15307 1-587)” was tested, and the binding (ΔNt1 MNT-HA (mouse)) was “binds”, the binding (ΔNt2 MNT-HA (mouse)) was “binds” and the binding (mouse WT MNT-HA (mouse)) was “binds”.

In the case of “p65 (human, endogenous) (from UniProt Q04206 1-551)”, the binding [1] is reported as “no binding”.

In the case of “MAX (human, endogenous) (from UniProt P61244 1-160)”, the binding [1] is reported as “binds”.

For “c-REL (mouse, endogenous) (from UniProt P15307 1-587)”, the binding [3] was “binds”.

B1: c-REL (human, endogenous) (protein, UniProt Q04864 1-619)
chain: T6 chain
B1 was tested, and the binding [4] was “binds”, the binding [5] was “binds” and the binding [6] was “binds”.

B2: IκBα (human, endogenous), P25963 1-317 (protein)
chain: MFQAAERPQEWAMEGPRDGLKKERLLDDRHDSGLDSMKDEEYEQMVKELQEIRLEPQEVPRGSEPWKQQLTEDGDSFLHLAIIHEEKALTMEVIRQVKGDLAFLNFQNNLQQTPLHLAVITNQPEIAEALLGAGCDPELRDFRGNTPLHLACEQGCLASVGVLTQSCTTPHLHSILKATNYNGHTCLHLASIHGYLGIVELLVSLGADVNAQEPCNGRTALHLAVDLQNPDLVSLLLKCGADVNRVTYQGYSPYQLTWGRPSTRIQQQLGQLTLENLQMLPESEDEESYDTESEFTEFTEDELPYDDCVFGGQRLTL
For B2, the binding [7] was “binds”.
